{
  "source": "PubChem BioAssay AID488969",
  "about": "(Vanderbilt High Throughput Screening Facility, 2010)",
  "note": "Over roughly 110,000 compounds, “z-score” has its median near -0.1; the highest 2% begin near 2. This is one part of the list. Calls of active or inactive are those of the source.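 Rule for the calls: active = z-score in the third read window above 3 or below -3; inactive = the rest.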",
  "data": [
    {"target": "Metabotropic glutamate receptor 8 (Rattus norvegicus) (UniProt P70579)", "sequence (P70579 whole entry, looked up)": "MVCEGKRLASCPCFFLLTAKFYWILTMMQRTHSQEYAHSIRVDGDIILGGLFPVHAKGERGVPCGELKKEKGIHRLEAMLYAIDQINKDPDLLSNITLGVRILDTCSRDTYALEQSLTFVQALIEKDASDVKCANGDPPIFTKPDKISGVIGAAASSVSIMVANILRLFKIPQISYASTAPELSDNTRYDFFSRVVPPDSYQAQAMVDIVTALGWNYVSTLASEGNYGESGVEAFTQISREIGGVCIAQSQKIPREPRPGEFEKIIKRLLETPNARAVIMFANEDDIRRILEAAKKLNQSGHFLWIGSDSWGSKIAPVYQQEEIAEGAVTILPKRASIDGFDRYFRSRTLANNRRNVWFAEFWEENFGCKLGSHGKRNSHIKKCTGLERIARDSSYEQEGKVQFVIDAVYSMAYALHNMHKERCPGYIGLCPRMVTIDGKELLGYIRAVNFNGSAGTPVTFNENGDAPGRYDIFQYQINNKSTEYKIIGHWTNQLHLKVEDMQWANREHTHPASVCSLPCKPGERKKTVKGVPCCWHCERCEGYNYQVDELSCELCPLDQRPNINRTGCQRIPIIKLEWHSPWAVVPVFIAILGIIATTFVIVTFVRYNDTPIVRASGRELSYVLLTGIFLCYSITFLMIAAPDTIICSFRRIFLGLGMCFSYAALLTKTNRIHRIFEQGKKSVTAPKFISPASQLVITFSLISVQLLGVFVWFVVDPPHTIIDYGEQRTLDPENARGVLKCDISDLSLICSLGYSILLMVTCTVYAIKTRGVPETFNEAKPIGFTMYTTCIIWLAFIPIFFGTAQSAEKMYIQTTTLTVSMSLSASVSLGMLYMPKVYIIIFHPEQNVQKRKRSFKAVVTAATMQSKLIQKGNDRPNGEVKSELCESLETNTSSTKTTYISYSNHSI", "test": "mGluR8 Gi/Go-coupled signaling modulation – cell-based, rat, thallium flux, HTS, primary screen (AID 488969)", "settings": "HEK293 rat mGluR8, GIRK (G protein-gated inwardly rectifying potassium channel) thallium flux, FluoZin2; at 10 µM; stronger effect = higher value; submaximal glutamate (EC20) added with thallium", "values": [
      {"smiles": "Clc1ccc(Cc2nc(-c3cccnc3)no2)cc1", "z-score": 0.0204},
      {"smiles": "CC1=CC(C)(C)Nc2ccc(OC(=O)C(Cc3ccccc3)N3C(=O)c4ccccc4C3=O)cc21", "note": "(centres undefined)", "z-score": 1.05},
      {"smiles": "O=C(CCCOc1ccc(Cl)cc1Cl)N/N=C/c1ccc(Cl)cc1", "z-score": 0.0156},
      {"smiles": "Cc1ccccc1NC(=O)C1c2cccc[n+]2CC(=O)N1c1c(C)cccc1C", "note": "(centres undefined)", "z-score": -0.34},
      {"smiles": "COc1cc(NC(=O)c2ccco2)c(C(=O)OCC(=O)Nc2ncc(Cl)cc2Cl)cc1OC", "z-score": -0.275},
      {"smiles": "O=[N+]([O-])c1ccc(NCCNS(=O)(=O)c2ccccc2)c(C(F)(F)F)c1", "z-score": -0.328},
      {"smiles": "COc1ccc(CCNc2oc(-c3ccc(OC)c(OC)c3)nc2C#N)cc1", "z-score": -0.402},
      {"smiles": "Cc1cc(C(=O)N/N=C/c2cc(N=Nc3ccccc3)ccc2O)n[nH]1", "z-score": 0.249},
      {"smiles": "Cc1ccc2ncnc(NCCCN3CCOCC3)c2c1", "z-score": 0.399},
      {"smiles": "O=C(C1CCN(S(=O)(=O)c2cccc3cccnc23)CC1)N1CCCC1", "z-score": 0.116},
      {"smiles": "CC(=O)Nc1ccc2c(c1)CCC2=O", "z-score": 0.663},
      {"smiles": "Cc1nc2ccc(S(=O)(=O)NCC(=O)N3CCc4ccccc43)cc2s1", "z-score": 0.0182},
      {"smiles": "CC(C)(C)c1ccc2c(c1)OCC(C(=O)O)O2", "note": "(centres undefined)", "z-score": -0.0992},
      {"smiles": "S=C(NN=C1CCCCCC1)Nc1ccc(Cl)cc1", "z-score": "active: 9.7"},
      {"smiles": "Cc1nc2cc(N3CCCCC3)c(NC(=O)c3cccnc3)cc2c(=O)n1Cc1ccccc1", "z-score": -0.332},
      {"smiles": "COc1cc(-c2nnc(CSc3nnc(Nc4ccc(C(C)C)cc4)s3)o2)cc(OC)c1OC", "z-score": 0.152},
      {"smiles": "CCOc1ccc(C(=O)CSc2nnc(N)s2)cc1", "z-score": -0.322},
      {"smiles": "N=C1S/C(=C\\c2cccc3ccccc23)C(=O)N1c1ccc(F)cc1", "z-score": -0.0772},
      {"smiles": "Cc1c(C(=O)C(=O)NCCc2ccc(S(N)(=O)=O)cc2)c2ccccc2n1C", "z-score": -0.183},
      {"smiles": "O=C(CSCc1ccc(Cl)cc1)N/N=C/c1ccc(OCC(=O)Nc2ccccc2)cc1", "z-score": -0.00465},
      {"smiles": "O=C(NC1(C(F)(F)F)NC(=O)N(c2ccccc2)C1=O)c1cccs1", "note": "(centres undefined)", "z-score": -0.132},
      {"smiles": "COc1ccc(-n2c(C)cc(/C=N/Nc3nc(N4CCOCC4)nc(N4CCOCC4)n3)c2C)cc1", "z-score": 0.604},
      {"smiles": "COc1ccc(C(=O)Nc2nc3ccc(S(C)(=O)=O)cc3s2)cc1", "z-score": 0.0981},
      {"smiles": "CCCNC(=O)c1cccc(COCC(F)(F)C(F)F)c1", "z-score": -0.0567},
      {"smiles": "CCSc1ncc(C#N)c(=O)[nH]1", "z-score": -0.267},
      {"smiles": "Cc1sc2ncn(CC(=O)NCCN3CCOCC3)c(=O)c2c1S(=O)(=O)N1CCC(C)CC1", "z-score": 0.00208},
      {"smiles": "Nc1nonc1-c1nc2ccccc2n1Cc1ccc(F)cc1Cl", "z-score": 0.0909},
      {"smiles": "Cc1ccc(C(=O)CC2(O)C(=O)N(CCc3ccccc3)c3ccc(Br)cc32)o1", "note": "(centres undefined)", "z-score": -0.462},
      {"smiles": "CCC(C)(C(=O)NC1CCCCC1)N(Cc1ccco1)C(=O)c1cnccn1", "note": "(centres undefined)", "z-score": 0.106},
      {"smiles": "CCCC1NC(=S)N(C2CCCCC2)C1=O", "note": "(centres undefined)", "z-score": 0.0696},
      {"smiles": "O=C(Cn1cc(SCc2cccc(Cl)c2)c2ccccc21)N1CCOCC1", "z-score": -0.143},
      {"smiles": "CCc1c(O)nc(SCC(=O)NC(C)(C)C)n(-c2ccccc2)c1=O", "z-score": -0.439},
      {"smiles": "Cc1cc(C)nc(SC2CCCCC2NS(=O)(=O)c2ccc(Cl)cc2)n1", "note": "(centres undefined)", "z-score": -0.454},
      {"smiles": "O=C(CSC(=S)N1CCOCC1)c1ccccc1", "z-score": -0.26},
      {"smiles": "O=C(CC12CC3CC(CC(C3)C1)C2)NCC(=O)OCc1cc(=O)oc2ccc3ccccc3c12", "z-score": -0.205},
      {"smiles": "O=C(COc1ccc(S(=O)(=O)Nc2ccccc2)cc1)N1CCOCC1", "z-score": 0.295},
      {"smiles": "Cc1ccc(C(=O)CSc2nccn2-c2ccccc2)cc1", "z-score": -0.266},
      {"smiles": "COc1ccccc1-n1c(SCC(N)=O)nnc1-c1ccccc1", "z-score": -0.816},
      {"smiles": "COC(=O)c1cccc(NC(=O)CCCOc2ccccc2)c1", "z-score": -0.111},
      {"smiles": "N#CC(c1nc2ccccc2nc1N1CCCC1)S(=O)(=O)c1ccccc1", "note": "(centres undefined)", "z-score": -0.235},
      {"smiles": "Cc1ccc([N+](=O)[O-])cc1NC(=O)CCCOc1ccccc1", "z-score": -0.134},
      {"smiles": "CCCN1C(=O)c2cccc3c(N4CCCCC4)ccc(c23)C1=O", "z-score": -0.337},
      {"smiles": "COC(=O)Cc1[nH]nc2c1C1(C(=O)N(Cc3ccccc3)c3ccccc31)C(C#N)=C(N)O2", "note": "(centres undefined)", "z-score": 0.121},
      {"smiles": "O=S(=O)(c1cccc2cccnc12)N1CCN(c2ccccc2)CC1", "z-score": 0.0932},
      {"smiles": "CCc1cc(=O)oc2cc(OC(C)=O)cc(OC(C)=O)c12", "z-score": -0.0844},
      {"smiles": "Cc1nn(-c2ccccc2)c(C)c1NC(=O)c1cccs1", "z-score": -0.0112},
      {"smiles": "O=C(Nc1ccc2c(c1)CCC2)c1cnccn1", "z-score": -0.104},
      {"smiles": "CC(C)(C)c1ccc(-c2noc(CCC(N)=O)n2)cc1", "z-score": 0.388},
      {"smiles": "COc1cc(/C=C/C(=O)Nc2nnc(CC(C)C)s2)cc(OC)c1OC", "z-score": -0.317},
      {"smiles": "Cn1c(=O)c2c(nc(SCCCC#N)n2Cc2c(F)cccc2Cl)n(C)c1=O", "z-score": -1.91},
      {"smiles": "CCOC(=O)C1CCN(C(=O)C2c3ccccc3C(=O)N(C)C2c2ccc(OC)cc2)CC1", "note": "(centres undefined)", "z-score": 0.537},
      {"smiles": "CC1CCN(CC(O)COC2CCC(C(C)(C)C)CC2)CC1", "note": "(centres undefined)", "z-score": "active: 4.18"},
      {"smiles": "COC(=O)C1(C)NC(c2cccs2)C2C(=O)N(c3ccc(F)cc3)C(=O)C21", "note": "(centres undefined)", "z-score": -0.124},
      {"smiles": "O=C(CCN1C(=O)C2C3C=CC(C3)C2C1=O)NC1CCCc2ccccc21", "note": "(centres undefined)", "z-score": -0.108},
      {"smiles": "COc1ccc(OC2C(=O)N(c3ccc(F)cc3)C2c2ccc(OC)c(OC)c2)cc1", "note": "(centres undefined)", "z-score": -0.361},
      {"smiles": "CSCCC(NC(=O)c1cc([N+](=O)[O-])cc([N+](=O)[O-])c1)c1nc2ccccc2[nH]1", "note": "(centres undefined)", "z-score": -0.0904},
      {"smiles": "O=C(Cn1cnc2ccccc2c1=O)Nc1ccc(-c2nnc3n2CCCCC3)cc1", "z-score": -0.375},
      {"smiles": "CC(C)CNS(=O)(=O)c1ccc(CCC(=O)O)cc1", "z-score": -0.0258},
      {"smiles": "Cc1ccc(C(=O)CSc2nc3ccccc3c(=O)n2-c2ccccc2)s1", "z-score": 0.061},
      {"smiles": "NC(=O)CC1Nc2cccc3cccc(c23)NC1=O", "note": "(centres undefined)", "z-score": -0.21},
      {"smiles": "CCN(Cc1cc2ccccc2[nH]c1=O)C(=O)C1CCCCC1", "z-score": 0.0811},
      {"smiles": "Cc1sc2ncnc(N[C@@H](Cc3c[nH]c4ccccc34)C(=O)O)c2c1C", "z-score": 0.0177},
      {"smiles": "CC(=O)Nc1ccc(S(=O)(=O)Nc2nc3ccccc3nc2Nc2ccccc2)cc1", "z-score": -0.7},
      {"smiles": "FC(F)(F)c1ccccc1/C=N/N1CCN(Cc2ccccc2)CC1", "z-score": -0.352},
      {"smiles": "O=C(NC(=S)NC1C2CC3CC(C2)CC1C3)C12CC3CC(CC(C3)C1)C2", "note": "(centres undefined)", "z-score": 0.0926},
      {"smiles": "Cc1ccc(NC(=O)CSCC(=O)N2c3ccccc3CCc3ccccc32)cc1", "z-score": -0.986},
      {"smiles": "Cc1cc(/C=C(\\C#N)C(=O)NC2CC2)c(C)[nH]1", "z-score": 0.155},
      {"smiles": "N#CC1=C(N)Oc2ccccc2C12C(=O)Nc1n[nH]c(-c3ccccc3)c12", "note": "(centres undefined)", "z-score": 0.824},
      {"smiles": "O=S(=O)(c1ccc(S(=O)(=O)N2CCCN(Cc3ccccc3)C2)cc1)N1CCCCCC1", "z-score": -0.158}
    ]}
  ]
}
